Measured values: US20250288553A1, “Antimicrobial Compositions and Uses for Treatment of Clostridioides difficile, Mycobacterium tuberculosis, and Enterococcus faecalis Infection” (priority 2022, published 2025)

How the values were obtained:
[1] = test system: M. smegmatis mc^2155 ATCC 700084; test: MIC against M. smegmatis, REMA; design: key: (—) = no activity seen; conditions: determined visually by REMA assay, 24-hour incubation
[2] = test system: Mycobacterium tuberculosis H37Ra ATCC 25177; test: MIC against Mtb H37Ra, resazurin microtiter assay (REMA); design: key: (—) = no activity seen; conditions: determined visually by REMA assay, 14-day incubation

| Compound | MIC M. smegmatis [1] | MIC Mtb H37Ra [2] |
| --- | --- | --- |
| CC1(C)CCC[C@]2(C)[C@H]3C=C4C=C(O)C(=O)C=C4O[C@@]3(C)CC[C@@H]12 [Compound 1, (+)-Puupehenone] | — |  |
| CCC(=O)Oc1cc2c(cc1OC(=O)CC)[C@@H](OC)[C@@H]1[C@@]3(C)CCCC(C)(C)[C@@H]3CC[C@]1(C)O2 [Compound 16] | — |  |
| CO[C@@H]1c2cc(OC(=O)C(C)C)c(OC(=O)C(C)C)cc2O[C@@]2(C)CC[C@H]3C(C)(C)CCC[C@]3(C)[C@@H]12 [Compound 17] | — |  |
| CO[C@@H]1c2cc(OC(=O)c3ccccc3)c(OC(=O)c3ccccc3)cc2O[C@@]2(C)CC[C@H]3C(C)(C)CCC[C@]3(C)[C@@H]12 [Compound 18] | — | — |
| CO[C@@H]1c2cc(OC(=O)C(C)(C)C)c(O)cc2O[C@@]2(C)CC[C@H]3C(C)(C)CCC[C@]3(C)[C@@H]12 [Compound 19, 15-α-methoxypuupehenol monopivalate] | — |  |
| CC(=O)Oc1cc2c(cc1OC(C)=O)[C@@H](OC(C)=O)[C@@H]1[C@@]3(C)CCCC(C)(C)[C@@H]3CC[C@]1(C)O2 [Compound 20, 15-α-acetoxypuupehenol diacetate] | — |  |
| CCC(=O)Oc1cc2c(cc1OC(=O)CC)[C@@H](OC(=O)CC)[C@@H]1[C@@]3(C)CCCC(C)(C)[C@@H]3CC[C@]1(C)O2 [Compound 21] | — |  |
| CC(C)C(=O)Oc1cc2c(cc1OC(=O)C(C)C)[C@@H](OC(=O)C(C)C)[C@@H]1[C@@]3(C)CCCC(C)(C)[C@@H]3CC[C@]1(C)O2 [Compound 22] | — | — |
| CC1(C)CCC[C@]2(C)[C@@H]1CC[C@]1(C)Oc3ccc(O)cc3C[C@@H]21 [Compound 31, (+)-Chromazonarol] | — |  |
| CC1(C)CCCC2(C)C1CCC(C)(O)C2Cc1ccc(OCc2ccccc2)cc1 (stereo not shown) [Compound 33] | — |  |
| CC1(C)CCCC2(C)C1CCC(C)(O)C2Cc1ccc(O)cc1 (stereo not shown) [Compound 34] | — | — |
| CC1(C)CCCC2(C)C1CCC(C)(O)C2Cc1ccc(O)c(O)c1 (stereo not shown) [Compound 38] | — | — |
